# The other results are listed elsewhere or left out.
# B1: MpL2 (Macrolepiota procera) (protein)
# chain: MSTQVSSGQTYKITNVKAGTVIDLSGEDNKSIIGYPYHSGKNQQWTFNWTGKAWTLRSASSGSYLGIEGTPADGTRLVAVNDPFEWHIWRDEANENAFRIFVPFTNYNLRLSGYGDTTPGTPVQLWWTWEGLHQTWTIDRP
# How the values were obtained:
# Test in all cases: glycan array binding signal (z-score within array); higher = stronger binding
# Conditions in all cases: glycan notation: IUPAC condensed, linker removed; mutation: D109R
# [1] = target: Gal(b1-4)GlcNAc(b1-3)Gal(b1-4)GlcNAc(b1-2)Man(a1-3)[Gal(b1-4)GlcNAc(b1-3)Gal(b1-4)GlcNAc(b1-2)Man(a1-6)]Man(b1-4)GlcNAc(b1-4)[Fuc(a1-6)]GlcNAc
# Summary of the method: (§1)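 Negative Z-scores can be read as non-binding. The Z-score is calculated within each array and then averaged across arrays of one protein sequence at different concentrations or buffers and across linkers. Arrays, 3228 in all, were curated from the Consortium for Functional Glycomics database and kept only where the protein sequence was available.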
# [2] = target: Gal(b1-4)GlcNAc(b1-3)Gal(b1-4)GlcNAc(b1-2)[Gal(b1-4)GlcNAc(b1-3)Gal(b1-4)GlcNAc(b1-6)]Man(a1-6)[Gal(b1-4)GlcNAc(b1-3)Gal(b1-4)GlcNAc(b1-2)Man(a1-3)]Man(b1-4)GlcNAc(b1-4)GlcNAc
# Summary of the method: as §1
# [3] = target: Gal(b1-4)GlcNAc(b1-3)Gal(b1-4)GlcNAc(b1-2)[Gal(b1-4)GlcNAc(b1-3)Gal(b1-4)GlcNAc(b1-6)]Man(a1-6)[Gal(b1-4)GlcNAc(b1-3)Gal(b1-4)GlcNAc(b1-2)Man(a1-3)]Man(b1-4)GlcNAc(b1-4)[Fuc(a1-6)]GlcNAc
# Summary of the method: as §1
# [4] = target: Gal(b1-4)GlcNAc(b1-3)Gal(b1-4)GlcNAc(b1-3)Gal(b1-4)GlcNAc
# Summary of the method: as §1
# [5] = target: Gal(b1-4)GlcNAc(b1-3)Gal(b1-4)GlcNAc(b1-3)Gal(b1-4)GlcNAc(b1-2)Man(a1-3)[Gal(b1-4)GlcNAc(b1-3)Gal(b1-4)GlcNAc(b1-3)Gal(b1-4)GlcNAc(b1-2)Man(a1-6)]Man(b1-4)GlcNAc(b1-4)GlcNAc
# Summary of the method: as §1
# [6] = target: Gal(b1-4)GlcNAc(b1-3)Gal(b1-4)GlcNAc(b1-3)Gal(b1-4)GlcNAc(b1-2)Man(a1-3)[Gal(b1-4)GlcNAc(b1-3)Gal(b1-4)GlcNAc(b1-3)Gal(b1-4)GlcNAc(b1-2)Man(a1-6)]Man(b1-4)GlcNAc(b1-4)[Fuc(a1-6)]GlcNAc
# Summary of the method: as §1
# [7] = target: Gal(b1-4)GlcNAc(b1-3)Gal(b1-4)GlcNAc(b1-3)Gal(b1-4)GlcNAc(b1-2)[Gal(b1-4)GlcNAc(b1-3)Gal(b1-4)GlcNAc(b1-3)Gal(b1-4)GlcNAc(b1-6)]Man(a1-6)[Gal(b1-4)GlcNAc(b1-3)Gal(b1-4)GlcNAc(b1-3)Gal(b1-4)GlcNAc(b1-2)Man(a1-3)]Man(b1-4)GlcNAc(b1-4)[Fuc(a1-6)]GlcNAc
# Summary of the method: as §1
# [8] = target: Gal(b1-4)GlcNAc(b1-3)Gal(b1-4)GlcNAc(b1-3)Gal(b1-4)GlcNAc(b1-3)Gal(b1-4)GlcNAc(b1-2)Man(a1-3)[Gal(b1-4)GlcNAc(b1-3)Gal(b1-4)GlcNAc(b1-3)Gal(b1-4)GlcNAc(b1-3)Gal(b1-4)GlcNAc(b1-2)Man(a1-6)]Man(b1-4)GlcNAc(b1-4)GlcNAc
# Summary of the method: as §1
# [9] = target: Gal(b1-4)GlcNAc(b1-3)Gal(b1-4)GlcNAc(b1-3)Gal(b1-4)GlcNAc(b1-3)Gal(b1-4)GlcNAc(b1-2)Man(a1-3)[Gal(b1-4)GlcNAc(b1-3)Gal(b1-4)GlcNAc(b1-3)Gal(b1-4)GlcNAc(b1-3)Gal(b1-4)GlcNAc(b1-2)Man(a1-6)]Man(b1-4)GlcNAc(b1-4)[Fuc(a1-6)]GlcNAc
# Summary of the method: as §1
# [10] = target: Gal(b1-4)GlcNAc(b1-3)Gal(b1-4)GlcNAc(b1-3)Gal(b1-4)GlcNAc(b1-3)Gal(b1-4)GlcNAc(b1-2)[Gal(b1-4)GlcNAc(b1-3)Gal(b1-4)GlcNAc(b1-3)Gal(b1-4)GlcNAc(b1-3)Gal(b1-4)GlcNAc(b1-6)]Man(a1-6)[Gal(b1-4)GlcNAc(b1-3)Gal(b1-4)GlcNAc(b1-3)Gal(b1-4)GlcNAc(b1-3)Gal(b1-4)GlcNAc(b1-2)Man(a1-3)]Man(b1-4)GlcNAc(b1-4)[Fuc(a1-6)]GlcNAc
# Summary of the method: as §1
# [11] = target: Gal(b1-4)GlcNAc(b1-3)Gal(b1-4)GlcNAc(b1-3)Gal(b1-4)GlcNAc(b1-3)Gal(b1-4)GlcNAc(b1-3)Gal(b1-4)GlcNAc(b1-2)Man(a1-3)[Gal(b1-4)GlcNAc(b1-3)Gal(b1-4)GlcNAc(b1-3)Gal(b1-4)GlcNAc(b1-3)Gal(b1-4)GlcNAc(b1-3)Gal(b1-4)GlcNAc(b1-2)Man(a1-6)]Man(b1-4)GlcNAc(b1-4)GlcNAc
# Summary of the method: as §1
# [12] = target: Gal(b1-4)GlcNAc(b1-3)Gal(b1-4)GlcNAc(b1-3)Gal(b1-4)GlcNAc(b1-3)Gal(b1-4)GlcNAc(b1-3)Gal(b1-4)GlcNAc(b1-2)Man(a1-3)[Gal(b1-4)GlcNAc(b1-3)Gal(b1-4)GlcNAc(b1-3)Gal(b1-4)GlcNAc(b1-3)Gal(b1-4)GlcNAc(b1-3)Gal(b1-4)GlcNAc(b1-2)Man(a1-6)]Man(b1-4)GlcNAc(b1-4)[Fuc(a1-6)]GlcNAc
# Summary of the method: as §1
# [13] = target: Gal(b1-4)GlcNAc(b1-3)Gal(b1-4)GlcNAc(b1-3)Gal(b1-4)GlcNAc(b1-3)Gal(b1-4)GlcNAc(b1-3)Gal(b1-4)GlcNAc(b1-2)[Gal(b1-4)GlcNAc(b1-3)Gal(b1-4)GlcNAc(b1-3)Gal(b1-4)GlcNAc(b1-3)Gal(b1-4)GlcNAc(b1-3)Gal(b1-4)GlcNAc(b1-6)]Man(a1-6)[Gal(b1-4)GlcNAc(b1-3)Gal(b1-4)GlcNAc(b1-3)Gal(b1-4)GlcNAc(b1-3)Gal(b1-4)GlcNAc(b1-3)Gal(b1-4)GlcNAc(b1-2)Man(a1-3)]Man(b1-4)GlcNAc(b1-4)[Fuc(a1-6)]GlcNAc
# Summary of the method: as §1
# [14] = target: Gal(b1-4)GlcNAc(b1-3)Gal(b1-4)GlcNAc(b1-3)Gal(b1-4)GlcNAc(b1-3)Gal(b1-4)GlcNAc(b1-3)Gal(b1-4)GlcNAc(b1-3)Gal(b1-4)GlcNAc(b1-2)Man(a1-3)[Gal(b1-4)GlcNAc(b1-3)Gal(b1-4)GlcNAc(b1-3)Gal(b1-4)GlcNAc(b1-3)Gal(b1-4)GlcNAc(b1-3)Gal(b1-4)GlcNAc(b1-3)Gal(b1-4)GlcNAc(b1-2)Man(a1-6)]Man(b1-4)GlcNAc(b1-4)GlcNAc
# Summary of the method: as §1
# [15] = target: Gal(b1-4)GlcNAc(b1-3)Gal(b1-4)GlcNAc(b1-3)GalNAc
# Summary of the method: as §1
# [16] = target: Gal(b1-4)GlcNAc(b1-3)Gal(b1-4)GlcNAc(b1-3)[Gal(b1-4)GlcNAc(b1-3)Gal(b1-4)GlcNAc(b1-6)]GalNAc
# Summary of the method: as §1
# [17] = target: Gal(b1-4)GlcNAc(b1-3)Gal(b1-4)GlcNAc(b1-6)[Gal(b1-3)]GalNAc
# Summary of the method: as §1
# [18] = target: Gal(b1-4)GlcNAc(b1-3)Gal(b1-4)[Fuc(a1-3)]GlcNAc(b1-3)Gal(b1-4)[Fuc(a1-3)]GlcNAc
# Summary of the method: as §1
# [19] = target: Gal(b1-4)GlcNAc(b1-3)GalNAc
# Summary of the method: as §1
# [20] = target: Gal(b1-4)GlcNAc(b1-3)[Fuc(a1-3)GlcNAc(b1-6)]Gal(b1-4)Glc
# Summary of the method: as §1
# [21] = target: Gal(b1-4)GlcNAc(b1-3)[Gal(b1-4)GlcNAc(b1-6)]Gal(b1-4)GlcNAc
# Summary of the method: as §1
# [22] = target: Gal(b1-4)GlcNAc(b1-3)[GlcNAc(b1-6)]Gal(b1-4)GlcNAc
# Summary of the method: as §1
# [23] = target: Gal(b1-4)GlcNAc(b1-6)Gal(b1-4)GlcNAc
# Summary of the method: as §1
# [24] = target: Gal(b1-4)GlcNAc(b1-6)GalNAc
# Summary of the method: as §1
# [25] = target: Gal(b1-4)GlcNAc(b1-6)[Gal(b1-3)]GalNAc
# Summary of the method: as §1
# [26] = target: Gal(b1-4)GlcNAc(b1-6)[Gal(b1-4)GlcNAc(b1-3)]GalNAc
# Summary of the method: as §1
# [27] = target: Gal(b1-4)GlcNAc6P
# Summary of the method: as §1
# [28] = target: Gal(b1-6)Gal
# Summary of the method: as §1
# [29] = target: Gal3S(b1-3)GalNAc
# Summary of the method: as §1
# [30] = target: Gal3S(b1-3)GlcNAc
# Summary of the method: as §1
# [31] = target: Gal3S(b1-3)[Fuc(a1-4)]GlcNAc
# Summary of the method: as §1
# [32] = target: Gal3S(b1-4)Glc
# Summary of the method: as §1
# [33] = target: Gal3S(b1-4)Glc6S
# Summary of the method: as §1
# [34] = target: Gal3S(b1-4)GlcNAc
# Summary of the method: as §1
# [35] = target: Gal3S(b1-4)[Fuc(a1-3)]Glc6S
# Summary of the method: as §1
# [36] = target: Gal3S(b1-4)[Fuc(a1-3)]GlcNAc
# Summary of the method: as §1
# [37] = target: Gal3S(b1-4)[Fuc(a1-3)]GlcNAc6S
# Summary of the method: as §1
# [38] = target: Gal3S4S(b1-4)GlcNAc
# Summary of the method: as §1
# [39] = target: Gal3S6S(b1-4)GlcNAc
# Summary of the method: as §1
# [40] = target: Gal3S6S(b1-4)GlcNAc6S
# Summary of the method: as §1
# [41] = target: Gal4S(b1-4)GlcNAc
# Summary of the method: as §1
# [42] = target: Gal4S6S(b1-4)GlcNAc
# Summary of the method: as §1
# [43] = target: Gal6P(b1-4)GlcNAc
# Summary of the method: as §1
# [44] = target: Gal6S(b1-3)GlcNAc
# Summary of the method: as §1
# [45] = target: Gal6S(b1-3)GlcNAc6S
# Summary of the method: as §1
binder,measurement,setting,value
B1,glycan array binding signal (z-score),[1],2.09
same,glycan array binding signal (z-score),[2],1.69
same,glycan array binding signal (z-score),[3],3.95
same,glycan array binding signal (z-score),[4],0.695
same,glycan array binding signal (z-score),[5],1.99
same,glycan array binding signal (z-score),[6],2.82
same,glycan array binding signal (z-score),[7],3.9
same,glycan array binding signal (z-score),[8],3.84
same,glycan array binding signal (z-score),[9],3.51
same,glycan array binding signal (z-score),[10],4.36
same,glycan array binding signal (z-score),[11],3.94
same,glycan array binding signal (z-score),[12],3.44
same,glycan array binding signal (z-score),[13],4.48
same,glycan array binding signal (z-score),[14],3.5
same,glycan array binding signal (z-score),[15],-0.005
same,glycan array binding signal (z-score),[16],0.33
same,glycan array binding signal (z-score),[17],-0.076
same,glycan array binding signal (z-score),[18],0.188
same,glycan array binding signal (z-score),[19],-0.017
same,glycan array binding signal (z-score),[20],0.124
same,glycan array binding signal (z-score),[21],2.06
same,glycan array binding signal (z-score),[22],0.43
same,glycan array binding signal (z-score),[23],0.409
same,glycan array binding signal (z-score),[24],0.017
same,glycan array binding signal (z-score),[25],0.018
same,glycan array binding signal (z-score),[26],1.42
same,glycan array binding signal (z-score),[27],-0.295
same,glycan array binding signal (z-score),[28],-0.282
same,glycan array binding signal (z-score),[29],-0.269
same,glycan array binding signal (z-score),[30],-0.276
same,glycan array binding signal (z-score),[31],-0.258
same,glycan array binding signal (z-score),[32],-0.262
same,glycan array binding signal (z-score),[33],-0.274
same,glycan array binding signal (z-score),[34],-0.277
same,glycan array binding signal (z-score),[35],-0.212
same,glycan array binding signal (z-score),[36],-0.253
same,glycan array binding signal (z-score),[37],-0.256
same,glycan array binding signal (z-score),[38],-0.282
same,glycan array binding signal (z-score),[39],-0.247
same,glycan array binding signal (z-score),[40],-0.257
same,glycan array binding signal (z-score),[41],-0.287
same,glycan array binding signal (z-score),[42],-0.262
same,glycan array binding signal (z-score),[43],-0.218
same,glycan array binding signal (z-score),[44],-0.275
same,glycan array binding signal (z-score),[45],-0.293
